According to the antibiotic and cytotoxicity screens of Wong et al. (2023):
The other results are listed elsewhere or left out.

Tests used:
HSkMC = human skeletal muscle cells; assay: cytotoxicity call (relative viability < 0.9); details: 10 µM
HepG2 = assay: cytotoxicity call (relative viability < 0.9); details: 10 µM
S. aureus RN4220 = assay: growth inhibition call (relative growth <= 0.2); details: 50 µM

| Structure (SMILES) | cytotoxicity call (HSkMC) | cytotoxicity call (HepG2) | growth inhibition call (S. aureus RN4220) |
| --- | --- | --- | --- |
| C[C@H](CO)N1C[C@H](C)[C@H](CN(C)Cc2ccc(C(=O)Nc3ccccc3N)cc2)Oc2c(NC(=O)Nc3ccc(C(F)(F)F)cc3)cccc2C1=O | inactive | inactive | inactive |
| Cc1cc(S(C)(=O)=O)c(S(C)(=O)=O)cc1C(=O)NC(=N)N | inactive | inactive | inactive |
| C[C@@H]1CCCCO[C@H](CN(C)Cc2ccncc2)[C@@H](C)CN([C@@H](C)CO)C(=O)c2cc(NC(=O)Nc3cccc4ccccc34)ccc2O1 | inactive | inactive | inactive |
| O=C1c2ccccc2[C@](Cc2ccccc2I)(C(=O)NCCN2CCOCC2)[C@H](c2ccc(CO)cc2)N1C1CCCCC1 | inactive | active | inactive |
| C[C@H](CO)N1C[C@H](C)[C@@H](CN(C)Cc2ccc(C(=O)O)cc2)OCCCC[C@H](C)Oc2ccc(NC(=O)NC3CCCCC3)cc2C1=O | inactive | inactive | inactive |
| O=C(C[C@@H]1C[C@@H]2c3cc(NS(=O)(=O)c4ccc(F)cc4)ccc3O[C@@H]2[C@H](CO)O1)NCCN1CCCCC1 | inactive | inactive | inactive |
| C[C@H]1CCCCO[C@@H](CN(C)Cc2ccc3c(c2)OCO3)[C@@H](C)CN([C@@H](C)CO)C(=O)c2cc(NC(=O)Nc3ccccc3)ccc2O1 | inactive | active | inactive |
| CO[C@H]1CN(C)C(=O)c2cc(NC(=O)CC(F)(F)F)ccc2OC[C@H](C)N(C(=O)C2CCOCC2)C[C@@H]1C | inactive | inactive | inactive |
| COc1nn(C)cc1C(=O)N1CCN(C)CC1 | inactive | inactive | inactive |
| COc1ccc(CN2C[C@H](C)[C@@H](OC)CN(C)C(=O)c3cc(NC(=O)c4nc5ccccc5s4)ccc3OC[C@H]2C)cc1 | inactive | inactive | inactive |
| CO[C@@H]1CN(C)C(=O)c2cc(NS(C)(=O)=O)ccc2OC[C@H](C)N(C(=O)C2CCCCC2)C[C@@H]1C | inactive | active | inactive |
| CCS(=O)(=O)N1[C@@H](CO)[C@H](c2ccccc2)C12CN(C(=O)CN(C)C)C2 | inactive | inactive | inactive |
| C[C@@H]1CN([C@@H](C)CO)C(=O)Cc2cc(NS(C)(=O)=O)ccc2O[C@H]1CN(C)C(=O)Nc1ccc2c(c1)OCO2 | inactive | inactive | inactive |
| C[C@H](CO)N1C[C@H](C)[C@H](CN(C)S(C)(=O)=O)Oc2c(NS(=O)(=O)c3cn(C)cn3)cccc2C1=O | inactive | active | inactive |
| C[C@@H]1CN([C@@H](C)CO)C(=O)c2cc(NC(=O)Nc3ccccc3)ccc2O[C@@H]1CN(C)Cc1ccc(C(=O)Nc2ccccc2N)cc1 | inactive | active | inactive |
| C[C@H]1CN([C@@H](C)CO)C(=O)c2cccc(NS(=O)(=O)c3cn(C)cn3)c2O[C@@H]1CN(C)Cc1ccc2c(c1)OCO2 | inactive | inactive | inactive |
| C[C@@H]1CCCCO[C@@H](CN(C)Cc2ccc(C(=O)O)cc2)[C@H](C)CN([C@@H](C)CO)C(=O)c2cc(NC(=O)Nc3ccc(F)cc3)ccc2O1 | inactive | inactive | inactive |
| C[C@@H]1CCCCO[C@@H](CN(C)C(=O)Nc2ccc(F)cc2)[C@H](C)CN([C@@H](C)CO)C(=O)c2cc(NC(=O)Nc3ccc4c(c3)OCO4)ccc2O1 | inactive | inactive | inactive |
| C[C@@H]1CN([C@@H](C)CO)S(=O)(=O)c2ccc(C#C[C@@H](C)O)cc2O[C@H]1CN(C)C(=O)Nc1ccccc1 | inactive | inactive | inactive |
| C[C@H]1CN([C@@H](C)CO)C(=O)c2cccc(NC(=O)Nc3cccc4ccccc34)c2O[C@@H]1CN(C)C(=O)Nc1ccc(F)cc1 | inactive | inactive | inactive |
| Cc1noc(C)c1S(=O)(=O)Nc1ccc2c(c1)CC(=O)N([C@H](C)CO)C[C@H](C)[C@H](CN(C)S(=O)(=O)c1ccc(Cl)cc1)O2 | inactive | inactive | inactive |
| CC1=C(C)C(=O)C(CCCCCCCCCC[P+](c2ccccc2)(c2ccccc2)c2ccccc2)=CC1=O | active | active | inactive |
| Cc1ccc(S(=O)(=O)Nc2ccc3c(c2)C(=O)N([C@@H](C)CO)C[C@@H](C)[C@H](CN(C)Cc2ccc(C(=O)O)cc2)OCCCC[C@H](C)O3)cc1 | inactive | inactive | inactive |
| CO[C@H]1CN(C)C(=O)c2ccc(NC(=O)C3CCOCC3)cc2OC[C@H](C)N(Cc2cccnc2)C[C@@H]1C | inactive | inactive | inactive |
